Reference: the RNAGym collection of RNA variant scans (doi:10.7554/elife.90254)
The source gives no read counts; variants with many changes may rest on few reads.

B1: LINE1-full (parent)
chain: UACGUAGGUGGUUUUCCCCUGAUAGUGCUAAGGGGGCCUGGAAGUUUGGACUGGGCAGAGCUCAACACAGCGUGGCAAAGUGGCUGUGGCUAGACUGCCUCUCUGGAUUCCUCGUCACUCAGCAGGGCAUCUCUGAGAGAAAUGCC

Variants of: B1
Assay: self-cleavage, relative activity (ratio to wild type); higher = more cleavage; in vitro, sequencing; the parent is a self-cleaving ribozyme
In the case of A57U U81A U85A, the self-cleavage is reported as 0.01. Variant A57U U85A A129G G137C U143C has a self-cleavage of 0.06. For A57U U91C U108C G126U U134C, the self-cleavage was 0.15. With A57U U102C A129C the self-cleavage was 0.2. In the case of A57U U102C A129G, the self-cleavage is reported as 0.11. With A57U U104C A124G the self-cleavage was 0.08. A57U U132C U134C gave a self-cleavage of 0.2. Work on G58A A65G U85A yielded a self-cleavage of 0.05. For G58A A69U G106A, the self-cleavage was 0.04. In the case of G58A A78G A142G, the self-cleavage is reported as 0. Variant G58A G106A U115C A138G has a self-cleavage of 0.07. With G58A U62C A69G the self-cleavage was 0.03. With G58A U102A A140U the self-cleavage was 0.06. With G58U A67U A136G the self-cleavage was 0. With G58U U85C A121G A136G the self-cleavage was 0.08. For G58U U100C U112C A136U, the self-cleavage was 0.05. Variant A59C G88A A94G has a self-cleavage of 0.34. A59C U73C A78G A141G gave a self-cleavage of 1.15. With A59C U73C U119A the self-cleavage was 0.66. Work on A59G A64C U112C yielded a self-cleavage of 0.26. In the case of A59G A64G C99U A142G, the self-cleavage is reported as 0.01. With A59G A64G U73A the self-cleavage was 0.04. For A59G A64U G126U, the self-cleavage was 0.08. A59G A65G A121G showed a self-cleavage of 0. For A59G A65G G126A U132C U143C, the self-cleavage was 0.13. Work on A59G A65G U115C yielded a self-cleavage of 0.57. In the case of A59G A65G U119C, the self-cleavage is reported as 0. For A59G A65U A124G, the self-cleavage was 0.12. Work on A59G A65U U73C yielded a self-cleavage of 0. In the case of A59G A67G G82U, the self-cleavage is reported as 0.05. A59G A69G A142G gave a self-cleavage of 0.18. Work on A59G A69G C90U yielded a self-cleavage of 0.05. A59G A69G U132A showed a self-cleavage of 0.12. Work on A59G A69U U81A U104C yielded a self-cleavage of 0. A59G A77G A78G gave a self-cleavage of 0.09. Variant A59G A77U A78G U115C has a self-cleavage of 0. Work on A59G A77U A92U yielded a self-cleavage of 0.25. A59G A78G A94G gave a self-cleavage of 0.45. Variant A59G A78U G82A has a self-cleavage of 0.09. A59G A79G A129U A141G gave a self-cleavage of 0.23. With A59G A79G U81A U102C the self-cleavage was 0.17. A59G A79G U81C showed a self-cleavage of 0. A59G A79G U134A gave a self-cleavage of 0.03. With A59G A79G U143C the self-cleavage was 0. Work on A59G A79U A140G yielded a self-cleavage of 0.03. In the case of A59G A92U U102A, the self-cleavage is reported as 0.11. Variant A59G A124G A136G has a self-cleavage of 0.07. In the case of A59G A129G A141G, the self-cleavage is reported as 0. With A59G C110A C113A the self-cleavage was 0.08. Work on A59G C111U A138U yielded a self-cleavage of 0.04. A59G G74A U96C showed a self-cleavage of 0.02. For A59G G83A U109C U130C A136G, the self-cleavage was 0.18. Variant A59G G88A A140C has a self-cleavage of 0. Work on A59G G88U G114A yielded a self-cleavage of 0.02. In the case of A59G G89U U134A A140G, the self-cleavage is reported as 0.03. For A59G U62A A77U A141G, the self-cleavage was 0.01. With A59G U62A U85G U112C the self-cleavage was 0. A59G U62A U96A U100C showed a self-cleavage of 0.27. A59G U62A U109C A141G gave a self-cleavage of 0.07. A59G U62A U115C gave a self-cleavage of 0. A59G U62C U134A U143A gave a self-cleavage of 0.06. For A59G U73A G83A U104C, the self-cleavage was 0.12. A59G U73A U87A U132C A140G gave a self-cleavage of 0. A59G U73C A138U gave a self-cleavage of 0.16. With A59G U73C C95A the self-cleavage was 0.11. In the case of A59G U73C U132C, the self-cleavage is reported as 0.56. In the case of A59G U73C U143C, the self-cleavage is reported as 1.53. A59G U81A A136U A142G showed a self-cleavage of 0.07. In the case of A59G U81C A129U, the self-cleavage is reported as 0.05. A59G U81C U87A U108G gave a self-cleavage of 0. With A59G U85A U132C U143A the self-cleavage was 0.04. Work on A59G U85C G122U yielded a self-cleavage of 0.03. Work on A59G U87C U96C yielded a self-cleavage of 0. With A59G U87C U112A the self-cleavage was 0.13. In the case of A59G U87C U143A C145G, the self-cleavage is reported as 0. In the case of A59G U96A A124U U143C, the self-cleavage is reported as 0.02. A59G U96A A141C showed a self-cleavage of 0.08. With A59G U96C U132C the self-cleavage was 0. For A59G U100C A124G A140G, the self-cleavage was 0. For A59G U100C C110U A124G, the self-cleavage was 0.11. Work on A59G U108A A141G yielded a self-cleavage of 0. With A59G U109A U132A the self-cleavage was 0.08. A59G U115C A136U showed a self-cleavage of 0.1. Work on A59G U119C A141G yielded a self-cleavage of 0.
